# Test results reported in US7432045B2 (priority 2003, dated 2008).
# At least one peptide structure holds a part that was inferred or is arguable (an end, a ring closure or a residue). Some results were stated once for a whole list of compounds, not compound by compound. Peptide text beside a SMILES is read from it.
# Key:
# [1] = tested on: Influenza virus strain PR8; set-up: species or system mice; conditions: mouse, in vivo
# HSV-1 KOS mutant hrR3 [2] = conditions: 25 μM peptide
# HSV-1 KOS mutant hrR3 [3] = experiment: LacZ+ virus (hrR3) entry assay with pre-adsorbed virus (entry block); format: cell-based
# Method: LacZ^+ virus (hrR3) entry assay: Confluent Vero cell cultures in 96-well microtiter plates were switched to Hepes-buffered serum-free DMEM, cooled on ice to 4° C. for 30 min, and infected with hrR3 for 1 hour at 4° C. in 40 μL of medium. Unattached virus was removed by rinsing with ice-cold medium. Treatments with antiviral peptide SEQ ID NO:1, referred to as EB, or a control peptide which comprised the RRKK tetra-peptide (SEQ ID NO:16) attached to a scrambled version of the membrane transiting peptide RRKKLAALPLVLAAPLAVLA (SEQ ID NO:17) (referred to as EBX), or mock-treatments with peptide-free medium were carried out in serum-free DMEM as indicated. Virus entry was initiated by transferring cultures to 37° C. To inactivate any remaining extracellular virus, cultures were rinsed with PBS and exposed to low pH citrate buffer (40 mM citric acid, 10 mM KCl, 135 mM NaCl, pH 3.0, according to Highlander et al., J. Virol. 61:3356 (1987), for 1 min at 23° C. The citrate was rinsed off with PBS and cultures were maintained in serum-supplemented DMEM until they were fixed with 0.5% gluteraldehyde in 5×PBS for 30 min at 23° C., stained for β-galactosidase activity for 1 hour or overnight at 23° C. with X-gal (Fisher Biotech; BP1615-1) in 1×PBS containing […], 1.3 mM K4Fe(CN)6, and 1.3 mM K3Fe(CN)6, and scored for the presence of blue […] cells.
# In these studies, the hrR3 virus was pre-adsorbed to cells for 1 hour at 4° C. before ice cold 25 μM EB or EBX were added in serum-free DMEM. After an additional 1 hour at 4° C., cultures were shifted to 37° C. to initiate virus entry. At 15 min intervals following the temperature shift, any virus remaining outside the cells was inactivated by washing the cultures with low pH citrate buffer. Cultures were then rinsed and returned to peptide-free serum-supplemented DMEM until they were fixed and stained for β-galactosidase 8 hours after the temperature shift.
# Two assays were used to assess the ability of the TAT peptides to inhibit infection of Vero cells with the hrR3 virus. In both assays, the virus was preadsorbed to cells at 4° C. and entry was initiated in the presence of peptide by shifting the cultures to a permissive temperature (30-37° C.). One hour later, the peptide was rinsed off. The entry blocking activity was measured in half of the cultures, in which any extracellular virus remaining after the peptide treatment was inactivated with low pH citrate buffer. The rest of the cultures were exposed to PBS instead of citrate buffer and used to measure virus inactivation. Virus inactivation depended on persistent effects of the peptide lasting for a period of eight hours. At the end of that period, all cultures were fixed and infected cells were detected by staining with X-gal.
# Virus (m.o.i.=0.025) was preadsorbed to Vero cells for 1 h at 4° C. before cultures were exposed to TAT-C (FIG. 15A), bTAT-9X (FIG. 15B), or n50,51TAT-C (FIGS. 15C, 15D) for 1 h at 33 (FIGS. 15A, 15B), 31 (FIG. 15C), or 37° C. (FIG. 15D). […] Inhibition of entry was measured in the citrate-treated cultures, in which any remaining external virus was inactivated immediately following exposure to peptide (●). Persistent virus inactivation lasting, at least in part, for the 8 h period following exposure to peptide, was measured in the PBS-treated cultures (◯). The IC50s measured in these experiments are included in Table 5.
# hrR3 [4] = experiment: Virucidal assay; format: cell-based, HSV-1
# Method: […] The treated virus was diluted 200-fold with serum-supplemented DMEM and assayed for infectivity approximately 1 hour later in microtiter wells seeded with Vero cells (3.5×10^4 cells/well) 1 d earlier. Forty or 100 microliter volumes of diluted virus were adsorbed for 1 or 2 h at 37° C. and lacZ^+ cells were scored 8 hours later. In some experiments, aliquots of diluted virus were first dialyzed (Spectra/Por; MWCO 12-14,000) overnight at 4° C. against a 60-fold excess volume of Hepes-buffered serum-supplemented DMEM or forced by syringe through 0.22 μm membranes (Millex-GV; Millipore) before the remaining infectious virus was assayed.
# hrR3 [5] = conditions: 30 μM peptide, 37° C.
# HSV-1 KOS virions = experiment: Electron microscopy of peptide-treated virus (aggregation); conditions: 25 μM peptide
# Method: Electron microscopy: Purified HSV-1 KOS virions (2.5×10^7 pfu/mL) according to Visalli et al., Virus Res. 29:167 (1993) were treated with 25 μM antiviral peptide SEQ ID NO:1 or the control peptide EBX (SEQ ID NO:17) in 40 μL serum-free DMEM buffered with 25 mM Hepes (pH 7.4) for 5 to 60 min at 4 or 23° C. Aliquots (10 μL) were adsorbed to pioloform poly-L-lysine-coated grids for 5 min at 23° C. Grids were rinsed with PBS, stained with 2% phosphotungstic acid (PTA) in water adjusted to pH ˜6, and air dried. Alternatively, virus was pre-adsorbed to grids and treated with peptides thereafter. A total of 4×10^9 pfu/mL of purified HSV-1 KOS in 5 μL PBS was applied to the coated grids for 5 min at 23° C., and the grids were rinsed once with serum-free DMEM buffered with 25 mM Hepes (pH 7.4) and treated with 15 μL of 5 mM EB or EBX in the same medium for 30 min at 37° C. The pH of highly concentrated solutions of antiviral peptide SEQ ID NO:1 and EBX was re-adjusted to 7.4 with NaOH prior to use. To prevent evaporation of the peptide-containing solutions, each grid was held in a Hiraoka flexible staining plate and covered with a miniature bell jar made from an 0.5 mL polypropylene micro-centrifuge tubes, small enough for the 15 μL to fill half of the bell jar facing the coated surface of the grid. The entire assembly was then incubated in a moist chamber for 30 min at 37° C. […]
structure (smiles),measurement,setting,value
"CC(C)C[C@H](NC(=O)[C@H](CCCCN)NC(=O)[C@H](CCCCN)NC(=O)[C@H](CCCNC(=N)N)NC(=O)[C@@H](N)CCCNC(=N)N)C(=O)N[C@@H](C)C(=O)N[C@@H](C)C(=O)N[C@@H](CC(C)C)C(=O)N1CCC[C@H]1C(=O)N[C@@H](CC(C)C)C(=O)N[C@H](C(=O)N[C@@H](CC(C)C)C(=O)N[C@@H](C)C(=O)N[C@@H](C)C(=O)N1CCC[C@H]1C(=O)N[C@@H](CC(C)C)C(=O)N[C@@H](C)C(=O)N[C@H](C(=O)N[C@@H](CC(C)C)C(=O)N[C@@H](C)C(=O)O)C(C)C)C(C)C [EBX, RRKKLAALPLVLAAPLAVLA, reference compound] (H-RRKKLAALPLVLAAPLAVLA-OH)",mice protected,[1],100%
same,effect on development of lacZ+ cells when added immediately after citrate treatment,HSV-1 KOS mutant hrR3 [2],did not significantly inhibit
same,Entry Blocking Activity IC50,HSV-1 KOS mutant hrR3 [3],None
same,reduction of the number of lacZ+ cells,"HSV-1 KOS mutant hrR3 [3]; 25 μM peptide, pre-adsorbed virus",did not significantly reduce
same,Virucidal Activity 4° C. IC50,hrR3 [4]; 4° C.,None
same,Virucidal Activity 37° C. IC50,hrR3 [4]; 37° C.,None
same,inhibition of infectivity of virions IC50,"hrR3 [4]; first experiment, FIG. 8A",no inhibitory effect
same,time needed to induce cellular resistance,hrR3 [5],1 to 2 h
same,aggregation of virus particles,HSV-1 KOS virions,nearly all found individually and uniformly scattered
